# Reference: the supplement of paper PMC8728848
# The list shows a part of the results.
# B1: Pbx2 (Cryptococcus neoformans) (protein)
# chain: AVSPLPSSTELVFYSQKRRRRRICSTATGSLSTPDPTRMTSDPYKRVGMRFSSVPRLLITFLSLLLLVSAAPPCVRFADYDSINQMFIDGGPGTKVLLCPNRLYRLSGPIIFTAADQEIATYGYPTGSERAVLRVEGRNTATAIQGDCRRCARVSVKNLVVDGNRKKLGRMRDFQLATGLVVLGGNEGQSIQNSWIKNPRGFTAIHIREGDKLQCSGARVEKNEIGPVGEEYDPEKDGDDPEMSPLGRPLADGVSIACRDSFIRDNTFRDNTDAAIVVYCSPGTLIHANHIFAQSLSAMAGILMVDSTPFNGDYTGTVVRSNIIDAVSRTIRVGIGIGPTVWSDDTETILTGGSVIGNGLKGRYMGYGIAAAGLKQWTIKDNWDEAKHEGRKSARCFDEPVNPDPIGLLYNRPTMEDCTVQSGFADHDFQYLVCIDGLYDKTNPPKHDPAPLAHDPSPTNAQEDNTVQQDGGDSKSKSIEQPREASDIEAEPSVEKMFSTGSEMMDDVLEHSHQRMHEVIDHLSRRIDILGAASAGKGSGDSKISEVLDPAMSSHLEKLQRKIEHLEFSLRSQIETAIQLRSAIQGWDQEMALVTDWEYDILLDVRHKLELSSYPHDQPLDPRLMRGQSYLNNEAVLVDDHSHPSLEGENLRAMSDRARLNANEEA
# Assays:
# Experiment in all cases: glycan array binding signal (z-score within array); higher = stronger binding
# Settings in all cases: glycan notation: IUPAC condensed, linker removed
# [1] = biological target: Neu5Ac(a2-3)Gal(b1-4)GlcNAc(b1-6)[Gal(b1-3)]GalNAc
# Method in brief: (§1)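 From the Consortium for Functional Glycomics database, 3228 arrays were curated, keeping only those whose protein sequence was available. Binding is given as a within-array Z-score averaged across arrays sharing a protein sequence and across linkers. Negative Z-scores can be read as non-binding.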
# [2] = biological target: Neu5Ac(a2-3)Gal(b1-4)GlcNAc(b1-6)[Neu5Ac(a2-3)Gal(b1-3)]GalNAc
# Method in brief: as §1
# [3] = biological target: Neu5Ac(a2-3)Gal(b1-4)GlcNAc6S
# Method in brief: as §1
# [4] = biological target: Neu5Ac(a2-3)Gal(b1-4)[Fuc(a1-3)]GlcNAc
# Method in brief: as §1
# [5] = biological target: Neu5Ac(a2-3)Gal(b1-4)[Fuc(a1-3)]GlcNAc(b1-2)Man
# Method in brief: as §1
# [6] = biological target: Neu5Ac(a2-3)Gal(b1-4)[Fuc(a1-3)]GlcNAc(b1-3)Gal
# Method in brief: as §1
# [7] = biological target: Neu5Ac(a2-3)Gal(b1-4)[Fuc(a1-3)]GlcNAc(b1-3)Gal(b1-4)GlcNAc
# Method in brief: as §1
# [8] = biological target: Neu5Ac(a2-3)Gal(b1-4)[Fuc(a1-3)]GlcNAc(b1-3)Gal(b1-4)[Fuc(a1-3)]GlcNAc(b1-3)Gal(b1-4)[Fuc(a1-3)]GlcNAc
# Method in brief: as §1
# [9] = biological target: Neu5Ac(a2-3)Gal(b1-4)[Fuc(a1-3)]GlcNAc(b1-3)GalNAc
# Method in brief: as §1
# [10] = biological target: Neu5Ac(a2-3)Gal(b1-4)[Fuc(a1-3)]GlcNAc(b1-6)[Gal(b1-3)]GalNAc
# Method in brief: as §1
# [11] = biological target: Neu5Ac(a2-3)Gal(b1-4)[Fuc(a1-3)]GlcNAc(b1-6)[Neu5Ac(a2-3)Gal(b1-3)]GalNAc
# Method in brief: as §1
# [12] = biological target: Neu5Ac(a2-3)Gal(b1-4)[Fuc(a1-3)]GlcNAc6S
# Method in brief: as §1
# [13] = biological target: Neu5Ac(a2-3)Gal6S(b1-4)GlcNAc
# Method in brief: as §1
# [14] = biological target: Neu5Ac(a2-3)Gal6S(b1-4)[Fuc(a1-3)]GlcNAc
# Method in brief: as §1
# [15] = biological target: Neu5Ac(a2-3)GalNAc
# Method in brief: as §1
# [16] = biological target: Neu5Ac(a2-3)GalNAc(b1-4)GlcNAc
# Method in brief: as §1
# [17] = biological target: Neu5Ac(a2-3)[GalNAc(b1-4)]Gal(b1-4)Glc
# Method in brief: as §1
# [18] = biological target: Neu5Ac(a2-3)[GalNAc(b1-4)]Gal(b1-4)GlcNAc
# Method in brief: as §1
# [19] = biological target: Neu5Ac(a2-3)[GalNAc(b1-4)]Gal(b1-4)GlcNAc(b1-3)GalNAc
# Method in brief: as §1
# [20] = biological target: Neu5Ac(a2-3)[Neu5Ac(a2-6)]GalNAc
# Method in brief: as §1
# [21] = biological target: Neu5Ac(a2-6)Gal
# Method in brief: as §1
# [22] = biological target: Neu5Ac(a2-6)Gal(b1-3)GlcNAc(b1-3)[Gal(b1-4)GlcNAc(b1-6)]Gal(b1-4)Glc
# Method in brief: as §1
# [23] = biological target: Neu5Ac(a2-6)Gal(b1-4)Glc
# Method in brief: as §1
# [24] = biological target: Neu5Ac(a2-6)Gal(b1-4)GlcNAc
# Method in brief: as §1
# [25] = biological target: Neu5Ac(a2-6)Gal(b1-4)GlcNAc(b1-2)Man
# Method in brief: as §1
# [26] = biological target: Neu5Ac(a2-6)Gal(b1-4)GlcNAc(b1-2)Man(a1-3)Man(b1-4)GlcNAc(b1-4)GlcNAc
# Method in brief: as §1
# [27] = biological target: Neu5Ac(a2-6)Gal(b1-4)GlcNAc(b1-2)Man(a1-3)[Gal(b1-4)GlcNAc(b1-2)Man(a1-6)]Man(b1-4)GlcNAc(b1-4)GlcNAc
# Method in brief: as §1
# [28] = biological target: Neu5Ac(a2-6)Gal(b1-4)GlcNAc(b1-2)Man(a1-3)[GlcNAc(b1-2)Man(a1-6)]Man(b1-4)GlcNAc(b1-4)GlcNAc
# Method in brief: as §1
# [29] = biological target: Neu5Ac(a2-6)Gal(b1-4)GlcNAc(b1-2)Man(a1-3)[GlcNAc(b1-4)][Neu5Ac(a2-6)Gal(b1-4)GlcNAc(b1-2)Man(a1-6)]Man(b1-4)GlcNAc(b1-4)GlcNAc
# Method in brief: as §1
# [30] = biological target: Neu5Ac(a2-6)Gal(b1-4)GlcNAc(b1-2)Man(a1-3)[Man(a1-6)]Man(b1-4)GlcNAc(b1-4)GlcNAc
# Method in brief: as §1
binder,measurement,setting,value
B1,glycan array binding signal (z-score),[1],-0.617
same,glycan array binding signal (z-score),[2],-0.105
same,glycan array binding signal (z-score),[3],-0.42
same,glycan array binding signal (z-score),[4],-0.624
same,glycan array binding signal (z-score),[5],-0.325
same,glycan array binding signal (z-score),[6],-0.186
same,glycan array binding signal (z-score),[7],-0.463
same,glycan array binding signal (z-score),[8],-0.615
same,glycan array binding signal (z-score),[9],0.907
same,glycan array binding signal (z-score),[10],0.276
same,glycan array binding signal (z-score),[11],-0.415
same,glycan array binding signal (z-score),[12],-0.51
same,glycan array binding signal (z-score),[13],-0.26
same,glycan array binding signal (z-score),[14],-0.573
same,glycan array binding signal (z-score),[15],-0.628
same,glycan array binding signal (z-score),[16],-0.573
same,glycan array binding signal (z-score),[17],-0.239
same,glycan array binding signal (z-score),[18],-0.522
same,glycan array binding signal (z-score),[19],-0.206
same,glycan array binding signal (z-score),[20],-0.486
same,glycan array binding signal (z-score),[21],-0.58
same,glycan array binding signal (z-score),[22],-0.115
same,glycan array binding signal (z-score),[23],-0.528
same,glycan array binding signal (z-score),[24],-0.507
same,glycan array binding signal (z-score),[25],0.729
same,glycan array binding signal (z-score),[26],-0.574
same,glycan array binding signal (z-score),[27],-0.362
same,glycan array binding signal (z-score),[28],-0.129
same,glycan array binding signal (z-score),[29],0.289
same,glycan array binding signal (z-score),[30],-0.389
